# Reference: PubChem BioAssay AID493208 (National Center for Advancing Translational Sciences (NCATS), 2011)
# About 340 (0.77%) of roughly 44,000 compounds were called active. About 5% were inconclusive and are not listed. Calls come from the whole dose curve; as a rule, active = well fitted inhibition curve with a large enough effect; inconclusive = small, poorly fitted or top-dose-only effect; inactive = flat fitted curve, though single readings scatter. Some of the results follow.
# Assay: Acumen qHTS Assay for Inhibitors of the mTORC1 Signaling Pathway in MEF (Tsc2-/-, p53-/-) Cells: Sytravon;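 note: plate controls were DMSO for no effect and rapamycin for full effect; nearly all actives have a fitted effect of over 50% in size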
# Conditions: phospho-rpS6 immunofluorescence/PI, 24 h; series mostly up to 38.3 µM; activity change, negative = inhibition: at the top concentration
# Method in brief: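 Read-out: phospho-S6 Alexa-488 intensity over PI intensity per well, scored as % active cells using thresholds from rapamycin (7.5 nM) and DMSO controls. Tsc2-/-, p53-/- MEFs exposed to compound for 24 h; PI cell count recorded as viability.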
row,SMILES,"activity change, negative = inhibition"
1,COc1c(Cl)cc(C(=O)N(Cc2ccc(C)o2)C2CCS(=O)(=O)C2)cc1Cl (configuration not stated),inactive: -0.536%
2,Cc1oc(-c2cccc(Cl)c2)nc1CN1CCCC(C(=O)N2CCN(c3ccc(F)cc3)CC2)C1 (configuration not stated),inactive: -1.74%
3,CCCNC(=O)C(CC)n1nc(CC)n2c(cc3oc(C)cc32)c1=O (configuration not stated),inactive: -3.09%
4,COc1cccc(C(=O)c2cn(CC(=O)NCCc3ccccc3)c3nc(C)ccc3c2=O)c1,inactive: -1.92%
5,CCOC(=O)N1CCc2c(sc3c2C(=O)NC(c2cc(OC)c(O)c(OC)c2)N3)C1 (configuration not stated),inactive: -12.6%
6,CCCN(CCC)CCCNC(=O)Cn1cc2c(n1)-c1c(oc(C(=O)N3CCCC3)c1C)CC2,inactive: 1.5%
7,Cc1ccc(C(=O)c2oc3ccccc3c2NC(=O)COc2ccccc2Cl)cc1,inactive: -12.5%
8,COc1cccc(NC(=O)Cn2c(=O)n(CCc3ccccc3)c(=O)c3c4c(sc32)CN(C(C)=O)CC4)c1,inactive: -10.4%
9,CCOC(=O)c1cc2c(=O)n3ccccc3nc2n(CC2CCCO2)c1=NC(=O)c1ccc(OC)cc1OC (configuration not stated),inactive: -1.34%
10,CCOc1ccc(NC(=O)NCc2ccc3c(c2)CCN3C(C)=O)cc1,inactive: 0%
11,Cc1cc(C)n(-c2nc3ccccc3nc2N2CCN(c3cccc(C)c3C)CC2)n1,inactive: 3.12%
12,CCOc1ccc(C(=O)Nc2ccc(-c3nc4cc(C(C)C)ccc4o3)cc2)cc1Cl,inactive: -0.498%
13,COc1ccc(C2=NN(CC(=O)NCc3ccccc3Cl)C(=O)CC2)cc1,inactive: -7.52%
14,Cc1ccc(CCNC(=O)c2c(C)oc3ncnc(N4CCOCC4)c23)cc1,inactive: -10.6%
15,Fc1cccc(NCc2cccn2-c2nnc(N3CCOCC3)s2)c1,inactive: -3.09%
16,Cc1ccc(NCc2cccn2-c2nnc(N3CCC(C(=O)NCCc4ccccc4)CC3)s2)cc1,inactive: -2.62%
17,COc1cccc(CNC(=O)N2CCC(CN3CCC(C)CC3)CC2)c1,inactive: -1.51%
18,COc1ccc(NC(=O)CSc2nc(-c3ccc(OC)cc3)[nH]c2-c2ccc(F)cc2)cc1,inactive: -1.68%
19,CN(C)c1ccc(CNC(=O)CCC(=O)N2Cc3ccccc3Oc3ncccc32)cc1,inactive: -4.87%
20,COc1ccccc1NC(=O)c1ccccc1NC(=O)c1ccccc1,inactive: -7.84%
21,COc1ccc(-c2c3c(nc4sc(C(=O)Nc5ccc(Cl)cc5)c(N)c24)CC(C)(C)CC3=O)cc1,inactive: -13.3%

row,SMILES,"activity change, negative = inhibition"
1,Cc1ccc(CN(C(=O)COc2ccc(C(C)(C)C)cc2)C2CCS(=O)(=O)C2)o1 (configuration not stated),inactive: -3.39%
2,CCOc1ccccc1NC(=O)CN(CCc1ccccc1)S(=O)(=O)c1ccc(C)cc1,inactive: 16.3%
3,Cn1nnc2c(N3CCCCC3)ncnc21,inactive: 0.671%
4,COCCc1nn2c(=O)cc(COC(=O)c3cccs3)nc2s1,inactive: -2.66%
5,Clc1ccc(CNc2nc3ccccc3c3nc(-c4cccnc4)nn23)cc1,inactive: -9.42%
6,CCn1ccc2cc(S(=O)(=O)N3CCC(C(=O)NCCc4ccc(SC)cc4)CC3)ccc21,inactive: 4.9%
7,CCc1cccc(C)c1NC(=O)CN1C(=O)c2c(c3ccccc3n2C)C1c1ccc(OC)cc1 (configuration not stated),inactive: -22%
8,CCCCN(C)C(=O)CN1C(=O)CCn2nc(-c3cn(C)c4ccccc34)cc21,inactive: 0.781%
9,COc1cccc(CCNC(=O)c2c(O)nc3cc(C)ccn3c2=O)c1,inactive: -0.0847%
10,COCCCNC(=O)Nc1cc(C(=O)NCc2ccc(OC)cc2)ccc1N1CCCC1,inactive: 22.5%
11,CCc1ccccc1NC(=O)C(NS(=O)(=O)c1ccc2c(c1)CCC(=O)N2)c1ccccc1 (configuration not stated),inactive: -0.693%
12,O=c1cc(-c2ccccc2)n2c(SCc3ccc([N+](=O)[O-])cc3)nnc2[nH]1,inactive: 0.305%
13,COC(=O)c1ccccc1NC(=O)c1ccc2c(c1)CCN2S(=O)(=O)c1ccc(C)cc1,inactive: -7.44%
14,CC1=C(C(N)=O)C(c2cccc(F)c2)n2nc(SCc3ccccc3)nc2N1 (configuration not stated),inactive: 0.928%
15,O=C(O)Cn1nc(N2CCN(c3ccc(F)cc3)CC2)ccc1=O,inactive: -6.05%
16,COc1ccccc1CNC(=O)c1cc(Sc2cccc(Cl)c2)nc2ccccc12,inactive: -22%
17,COc1cc(OC)c(NC(=O)C2=C(C)C(=O)OC23CCCCC3)cc1Cl,inactive: 0.337%
18,CCc1ccc(C(=O)c2cnc3ccc(C)cc3c2S(=O)(=O)c2ccc(OC)cc2)cc1,inactive: -8.08%
19,COc1ccc2cc(CNc3ccc(C)cc3)c(=O)n(CC(=O)Nc3ccc(OC)c(Cl)c3)c2c1,inactive: -7.3%
20,CCCCc1ccc(C(=O)Nc2ccc3nc(N(CC)CC)cc(C)c3c2)cc1,inactive: 0%
21,O=C(CCCn1c(=O)c2sccc2n(Cc2ccc(F)cc2Cl)c1=O)NCc1ccc2c(c1)OCO2,inactive: 2.72%

row,SMILES,"activity change, negative = inhibition"
1,CCNC(=O)c1cnc2sc(N3CCC(C)CC3)nn2c1=O,inactive: 0.913%
2,Cc1c(C(=O)N2CCCC2)oc2c1-c1nn(CC(=O)NCc3cccc(F)c3)cc1CC2,inactive: 2.14%
3,Cc1ccc2c(c1)N(C(=O)N1CCC(C(=O)NCCC3=CCCCC3)CC1)CC(C)O2 (configuration not stated),inactive: 5.53%
4,O=C(CCc1nc2cccnc2n1Cc1ccccc1)NCc1cccc(Cl)c1,inactive: 3.19%
5,Cc1ccccc1Nc1ncnc2c1c(-c1ccccc1)cn2-c1ccc(F)cc1,inactive: 6.1%
6,O=C(Nc1cccc(Cl)c1)c1ccc2nc(Cc3ccccc3)oc2c1,inactive: 4.53%
7,OCc1cnc(SCc2cccc(F)c2)n1Cc1ccc(F)cc1,inactive: -9.37%
8,CCCCn1c(CNC(=O)C23CC4CC(CC(C4)C2)C3)nnc1SCC(=O)Nc1ccccc1,inactive: -12.7%
9,CCN(CC)CCCNC(=O)CCc1c(C)n(CC)c2cc(-c3ccccc3OC)nn2c1=O,inactive: -0.0678%
10,CCOc1ccc(CCNc2ncnc3onc(-c4ccc(F)cc4)c23)cc1OCC,inactive: -1.13%
11,COC(=O)NNC(=O)C1CCC(C)CC1 (configuration not stated),inactive: 4.02%
12,CN1c2ccc(Cl)cc2-c2nc(SCC(=O)Nc3cc(F)ccc3F)ncc2S1(=O)=O,inactive: -3.18%
13,Cc1cccc(N2C(=O)CS(=O)(=O)C23C(=O)N(C)c2ccccc23)c1 (configuration not stated),inactive: 2.68%
14,CCc1nc2ccc(C(=O)NCCc3ccc(OC)c(OC)c3)cc2nc1CC,inactive: -2.92%
15,CCOc1ccccc1CNC(=O)c1[nH]c2ccccc2c1Sc1ccccc1,inactive: -6.57%
16,O=C(c1ccco1)N1CCN(c2nc3ccc(Cl)cc3s2)CC1,inactive: -4.55%
17,CCn1ccc2cc(S(=O)(=O)N3CCC(C(=O)NCCOC)CC3)ccc21,inactive: 1.13%
18,O=S(=O)(c1ccc(-c2cc(C(F)(F)F)on2)s1)N1CCN(c2cccc(Cl)c2)CC1,inactive: -8.02%
19,Cc1nn2c(C(F)(F)F)cc(-c3ccc(OC(C)C)cc3)nc2c1C#N,inactive: -0.228%
20,Cc1ccccc1OCC(=O)Nc1ccccc1C(=O)OCc1cc(=O)n2c(C)csc2n1,inactive: 7.34%
